Among all 310,000 compounds or so, about 2,200 (0.71%) showed an effect of 50% or more. Effects have a minus sign here. The list shows a part of the results.
Target: human ether-à-go-go-related gene (hERG) potassium channel (human, UniProt Q12809)
Experiment: primary screen, population patch clamp on CHO cells stably expressing hERG

Sequence of human ether-à-go-go-related gene (hERG) potassium channel (Q12809 whole entry, looked up): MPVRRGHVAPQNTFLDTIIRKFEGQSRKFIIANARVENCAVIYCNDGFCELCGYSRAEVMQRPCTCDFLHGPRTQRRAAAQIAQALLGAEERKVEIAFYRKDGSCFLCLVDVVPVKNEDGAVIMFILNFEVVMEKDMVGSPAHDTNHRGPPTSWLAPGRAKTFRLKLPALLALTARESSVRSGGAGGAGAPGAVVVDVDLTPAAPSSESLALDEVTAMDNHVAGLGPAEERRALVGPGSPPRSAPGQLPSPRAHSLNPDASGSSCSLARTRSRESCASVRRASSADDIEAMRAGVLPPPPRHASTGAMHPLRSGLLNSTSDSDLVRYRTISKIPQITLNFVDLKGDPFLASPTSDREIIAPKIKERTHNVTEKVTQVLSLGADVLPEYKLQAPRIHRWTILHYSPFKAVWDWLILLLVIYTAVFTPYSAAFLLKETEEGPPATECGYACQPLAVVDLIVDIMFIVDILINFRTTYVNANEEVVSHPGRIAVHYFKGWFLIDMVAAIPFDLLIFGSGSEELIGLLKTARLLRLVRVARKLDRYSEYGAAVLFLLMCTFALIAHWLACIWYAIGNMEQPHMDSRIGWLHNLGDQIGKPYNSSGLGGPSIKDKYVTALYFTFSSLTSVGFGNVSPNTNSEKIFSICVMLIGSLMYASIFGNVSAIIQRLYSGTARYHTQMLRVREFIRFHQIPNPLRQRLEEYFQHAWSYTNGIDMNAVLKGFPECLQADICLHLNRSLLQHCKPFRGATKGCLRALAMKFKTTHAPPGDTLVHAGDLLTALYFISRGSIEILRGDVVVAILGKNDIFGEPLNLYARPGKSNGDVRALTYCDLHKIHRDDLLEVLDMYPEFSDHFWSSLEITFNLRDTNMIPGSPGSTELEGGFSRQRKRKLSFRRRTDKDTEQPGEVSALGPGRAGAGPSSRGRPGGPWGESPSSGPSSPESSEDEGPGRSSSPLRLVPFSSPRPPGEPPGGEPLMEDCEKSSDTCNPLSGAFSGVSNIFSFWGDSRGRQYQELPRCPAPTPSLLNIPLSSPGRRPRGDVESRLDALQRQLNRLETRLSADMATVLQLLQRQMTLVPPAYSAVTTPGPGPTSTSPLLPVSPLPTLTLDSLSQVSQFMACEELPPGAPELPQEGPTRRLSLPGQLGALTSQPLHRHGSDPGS

| Compound | hERG current change (%, negative = inhibition) at 1uM |
| --- | --- |
| COc1cc(C)c(C#N)c(OC)n1 | 10.1% |
| O=C(c1cccc(Cl)c1)C1CCCN(S(=O)(=O)c2ccccc2)C1 (stereo not drawn) | 5.87% |
| C=CCOc1cccc(CNCCCN2CCOCC2)c1.Cl | 9.02% |
| c1ccc(-n2nnnc2NC2CCCCC2)cc1 | 6.98% |
| COc1cc(/C=N/NC(=O)c2cccc([N+](=O)[O-])c2)ccc1O | 0.107% |
| COc1ccc(C(=O)NNC(=S)NC(=O)c2cc(-c3ccccc3)nc3ccccc23)cc1 | 7.44% |
| O=C(c1ccc2snnc2c1)N1CCCCC1 | 9.41% |
| O=C(O)C(=O)O.O=[N+]([O-])c1cccc(CN2CCN(Cc3ccc(Br)cc3)CC2)c1 | -22.2% |
| Cn1c(=O)c(N)c2c3c(c(Br)ccc31)C(=O)c1ccccc1-2 | 6.1% |
| CN1CC[n+]2c(CN3C(=O)c4ccccc4C3=O)csc21.[I-] | 10.7% |
| O=C(O)C(Cc1ccccc1)n1cnnn1 (stereo not drawn) | 13.5% |
| Cn1c(SCC(=O)c2ccccc2)nnc1C1CC1 | -2.68% |
| O=C(CSc1ccc2ccccc2n1)NCCC1=CCCCC1 | 9.13% |
| O=C(CCn1cccn1)Nc1ccc2c(c1)OCCO2 | 22.2% |
| COC(=O)c1ccccc1NC(=O)CN(Cc1ccccc1)S(C)(=O)=O | 10.5% |
| Clc1ccc(Oc2cccc(/C=N/n3cnnc3)c2)cc1 | 7.8% |
| Cc1nnc(NCc2n[nH]c(=O)c3ccccc23)c2ccccc12 | 9.65% |
| O=C(Nc1ccccc1F)C1C2C=CC3(O2)C1C(=O)N(c1cccnc1)C3C(=O)NC1CCCCC1 (stereo not drawn) | 9.59% |
| Nc1nonc1-n1nnc(C(=O)N/N=C/c2ccccc2F)c1CN1CCc2ccccc21 | 9.17% |
| O=S(=O)(Nc1ccc2c(c1)OCCO2)c1ccc2oc3ccccc3c2c1 | 3.2% |
| CCOC(=O)C1CCCN(c2c(N3CCN(C4CCCCC4)CC3)c(=O)c2=O)C1 (stereo not drawn) | -33.8% |
| CCCn1nnnc1NCc1ccccc1Cl | 7.96% |
| COC(=O)c1ccc(C(=O)OC)c(NC(=O)COC(=O)C23CC4CC(CC(O)(C4)C2)C3)c1 | 5.8% |

| Compound | hERG current change (%, negative = inhibition) at 1uM |
| --- | --- |
| COc1ccc(C(=O)NCCCSC)cc1OC1CCN(C(C)C)CC1 | 13.4% |
| CCN(CC(O)CON=C1c2ccccc2-c2ccccc21)S(=O)(=O)c1ccc(Cl)cc1 (stereo not drawn) | 12.7% |
| COCc1cc(/C=N\NC(=O)Cc2ccc(OC)cc2)ccc1OC | -7.21% |
| CCN(CC)S(=O)(=O)c1cccc(NC(=O)CN2C(=O)c3ccc([N+](=O)[O-])cc3C2=O)c1 | 1.98% |
| COCCN(CCOC)C(=O)COC(=O)c1cc([N+](=O)[O-])ccc1Cl | 6.59% |
| CCOC(=O)c1c(C)c(C(=O)Nc2cc(OC)ccc2OC)c(C)n1CC | -4.47% |
| N#CC(C#N)=Cc1ccc(N2CCCC2)cc1 | 5.75% |
| CC(C)c1ccc(C(=O)N2CCN(c3cnn(C)c(=O)c3Cl)CC2)cc1 | -9.8% |
| O=C(NCc1ccccc1Cl)C1CCCN(c2nc3ccsc3c(=O)s2)C1 (stereo not drawn) | 11.8% |
| CC1=Nc2cc(C(=O)O)ccc2Sc2ccc(Br)cc21 | 12% |
| Cc1ccccc1N1CCN(S(=O)(=O)c2ccc3ccccc3c2)CC1 | 8.53% |
| Cc1ccc(Oc2ncc(CN3CC(C)OC(C)C3)s2)cc1 (stereo not drawn) | -3.38% |
| O=C(O)C1CCCCC1C(=O)Nc1ccc2c(c1)OCCO2 (stereo not drawn) | 8.99% |
| N#C/C(=C\Nc1ccccc1O)c1nc2ccccc2o1 | 1.79% |
| CCOC(=O)C1CCN(CC(=O)c2c(C)[nH]c3cc(C)ccc23)CC1 | -26.8% |
| Cc1csc(=N)n1Cc1ccccc1 | 6.5% |
| CCCCN1C(=O)Cc2c1nc(N)c1c(N)nc(N(CCC)CCC)c(C#N)c21 | 14.5% |
| COc1cccc(NC(=O)Nc2cc(C(=O)NCC3CCCO3)ccc2N2CC3CC(C2)c2cccc(=O)n2C3)c1 (stereo not drawn) | 14.1% |
| Cc1ccc2nc(NC(=O)CSCC(=O)Nc3cc(C)on3)sc2c1 | 11.7% |
| COc1ccc(-c2cc(C(=O)O)c3c(C)nn(-c4ccccn4)c3n2)cc1 | -1.01% |
| O=C(COc1ccc(F)cc1)N1CCC(c2ccccc2)C1 (stereo not drawn) | -0.561% |
| NC(=S)N/N=C/c1coc2ccc(F)cc2c1=O | 12.6% |

Reference: article PMC4336329 (PLoS ONE, 2015)
